Measurements published in PubChem BioAssay (NCI).
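Briefly, cells in 96-well plates were exposed to five compound concentrations for 48 h, and endpoints were estimated by linear interpolation. At the TGI there is no net growth.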 Not every entry of the source has a single result; some have several. This is not the full list of results. An entry can have further records. A record mostly stands for its own series of concentrations, not given here; a value can be the end of its range.

Experiments:
Test in all cases: NCI tumour cell line growth inhibition, 48 h
[1] = tested on: MOLT-4 leukemia
[2] = tested on: KM12 colon
[3] = tested on: M19-MEL melanoma
[4] = tested on: HCT-15 colon
[5] = tested on: SR leukemia
[6] = tested on: OVCAR-3 ovarian
[7] = tested on: HT29 colon

`C/C1=C\[C@@H](O)C(=O)/C=C/C=C\c2csc(n2)[C@@H](C)NC(=O)C[C@@]2(CC1)S(=O)SC(=O)[C@]2(C)O` (some centres not stated) was tested, and the TGI [1] was 515 nM and > 100 µM, the TGI [2] was 206 nM and 14.6 nM and the TGI [3] was 155 nM and 12.1 nM. The TGI [4] was 96.4 nM and 10.1 µM, the TGI [5] was 336 nM and > 100 µM and the TGI [6] was 59.2 nM and 11.1 µM. The TGI [7] was 575 nM and 25.4 nM.
